Results: PubChem BioAssay AID1347416 (National Center for Advancing Translational Sciences (NCATS), 2020)
Among all 4,100 compounds or so, about 1,600 (39%) were called active. The inconclusive results got no clear call from the source; some entries with a clear call stand among them for comparison. Calls come from the whole dose curve; as a rule, active = well fitted inhibition curve with a large enough effect; inconclusive = small, poorly fitted or top-dose-only effect; inactive = no such curve, though single readings can be large or run the other way. Potencies of inconclusive entries are doubtful fits and often do not repeat.

Assay: qHTS Validation assay for Inhibitors of Plasmodium falciparum Dd2 growth in vitro; note: nearly all actives have a fitted effect of over 70% in size
Conditions: P. falciparum Dd2 in RBCs, SYBR Green growth, 72 h; series mostly up to 28.7 µM
Source text: Malaria, a parasitic disease spread to humans through the bite of a Plasmodium infected Anopheles mosquito, continues to be a global health burden affecting millions of people, with an estimated 228 million cases and 405,000 deaths in 2018. Concerns about safety and limitations of current antimalarial treatments strongly emphasize the need to develop new therapeutic options. The scarce number of chemotypes and validated drug targets with efficacy against the liver stage, have hindered development of new antimalarials. To address this, a chemoprophylactic drug discovery effort was conducted through a combined phenotypic high-throughput asexual blood stage and liver stage screen, providing a robust foundation to identify liver-stage active lead chemotypes. Compounds were initially screened against Plasmodium falciparum Dd2 strain parasites using a in vitro SYBRGreen-1 based 72 hr proliferation assay to identify novel chemotypes to advance to liver stage assays. NIH/NCATS Early Translation Branch Assay Submitter (PI): Anton Simeonov Ph.D.
[…] Assay Protocol: PROTOCOL TABLE (as described by Inglese et al., 2007) SEQUENCE No. (e.g., 1, 2, 3, etc.); PARAMETER (e.g., Cells, Incubation, Reagent, etc.); VALUE; DESCRIPTION SEQUENCE, Parameter, Description 1; Reagent; 3 uL complete malaria growth medium, 1536 TC treated Black clear bottom plate 2; Controls; 23 nL positive control artesunate (300 nM final) to column 1; Neutral control DMSO to columns 2-4 3; Compound; 23 nL of compounds in dose response concentration (29 uM to 0.5 nM final) 4; Reagent; 5 uL malaria infected red blood cells (2.5% hematocrit final, 0.3% parasitemia 5; Time; 72 hours at 37C (5% O2, 5% CO2, 90% N2; 95% Rh) 6; Reagent; 2 uL lysis buffer/SYBRGreen-1, 25 sec shake immediately following dispense 7; Time; ~16 hours at 37C (5% O2, 5% CO2, 90% N2; 95% Rh) 8; Detector; EnVision (PerkinElmer) bottom read at 485/14nm excitation and 535/25 nm emission NOTES (numbers refer to sequence above): 1; Complete Malaria Growth Media: 1X RPMI-1640 w/L-glutamine, 5.5g/L Albumax II, 367 uM Hypoxanthine, 25 mM HEPES, 0.25% Sodium Bicarbonate, 35 uM Gentamicin sulfate 2; Controls were added using the Kalypsis Pintool (Wako USA) equipped with 1536 pinhead 3; Compounds were added in a 7-point, titration with a high final concentration of 29 uM by Pintool from seven inter-plate titrations of library plates and two DMSO control plates at the beginning and end (see Yasgar et al., 2008). 4; Red blood cells infected with Plasmodium falciparum Dd2 parasites were used. 6; Lysis buffer: 20 mM Tris-HCl, 10 mM EDTA, 0.16% Saponin, 1.6% Triton-X, 10X SYBR Green. REFERENCE: Inglese J, Shamu CE, Guy RK. 2007. Reporting data from high-throughput screening of small-molecule libraries. Nat Chem Biol. doi:10.1038/nchembio0807-438 Yasgar A, Shinn P, Jadhav A, Auld D, Michael S, Zheng W, Austin CP, Inglese J, Simeonov A. 2008. Compound Management for Quantitative High-Throughput Screening. J Lab Autom 13:79-89. doi:10.1016/j.jala.2007.12.004
Potency is the fitted concentration of half-maximal effect; tags give direction and shape of the fitted curve.

| Structure (SMILES) | Potency |
| --- | --- |
| CCOc1ccc(CN2CC[C@@](C)(O)[C@H](N3CCCC3)C2)cc1 | inactive |
| Cc1ccc(NC(=O)N2CCC(OC3CCN(S(C)(=O)=O)CC3)CC2)cc1F | inconclusive: 15 µM [inhibitor, partial curve] |
| CNC(=O)N1CCc2c(sc3ncnc(N(C)C)c23)C1 | inactive |
| COCc1ccc2c(c1)c(OC(C)(C)C(=O)NCC1CCOCC1)nn2Cc1cccnc1 | inactive |
| COc1ccc(N=C2NC(=O)/C(=C/c3ccco3)S2)cc1 | inconclusive: 13.3 µM [inhibitor, single point] |
| CSc1cccc(Nc2nc3c(S(=O)(=O)c4ccccc4)nnn3c3ccc(Cl)cc23)c1 | active: 1.88 µM |
| CCN(CC)CCNC(=O)c1cn(CC)c2ccc(S(=O)(=O)N3CCOCC3)cc2c1=O | inactive |
| CN1CCOc2c(C(=O)NCCc3cnc[nH]3)cc(-c3ccc(N4CCOCC4)cc3)cc21 | inactive |
| Cc1cnc(CCNC(=O)Cn2c(=O)oc3ccccc32)n1C1CC1 | inactive |
| CC(C)(C)CC(=O)N1CCC(N2C(=O)CCC2C(=O)NCc2ccccc2)CC1 (stereo not given) | inactive |
| Cn1nccc1C(=O)N1CCC2(CC1)NCCc1c2[nH]c2ccccc12 | inactive |
| CCCC(c1nnnn1CCC(C)C)N1CCC(C(N)=O)CC1 (stereo not given) | inactive |
| COc1ccc(OC)c(-n2nnc(-c3nc(-c4cc(OC)c(OC)c(OC)c4)no3)c2C)c1 | inactive |
| CC(C)c1nc(-c2ccc(OC3CCN(C(=O)c4cc(F)ccc4F)C3)cc2)no1 (stereo not given) | inconclusive: 16.8 µM [inhibitor, partial curve, poor fit] |
| CC1(C)N=C(N)N=C(N)N1c1ccc(OCCCOc2ccccc2)c(Cl)c1 | active: 2.99 µM |
| COc1ccc(OC)c(Nc2c3ccccc3nc3ccccc23)c1 | inconclusive: 15 µM [inhibitor, single point] |
| CCN(CC)CCNC(=O)c1ccc(NC(=O)c2ccc(Cl)c(S(=O)(=O)N3CCCCCC3)c2)cc1 | inconclusive: 5.31 µM [inhibitor, single point] |
| CCCCN(CC)CCNC(=S)Nc1ccc2nc(N3CCN(C)CC3)cc(C)c2c1 | inconclusive: 5.96 µM [inhibitor, full curve] |
| O=C(COc1ccc(-c2nnc3n2CCCC3)cc1)Nc1cccc(Br)c1 | inactive |
| CC(=O)c1ccc(N2CCN(C(=O)Nc3ccc(C)cc3)CC2)cc1 | inconclusive: 21.1 µM [inhibitor, single point] |
| CCc1nc(NCc2cn[nH]c2-c2ccc(Cl)cc2)c2cnn(C)c2n1 | inactive |
| CN1C(=O)C2(c3ccccc31)N(C)CC(c1ccccc1)C21SC(=S)N(Cc2ccco2)C1=O (stereo not given) | active: 13.3 µM |
| O=C(NC1CC1)c1ccc(CSCc2cccc(F)c2)o1 | active: 8.41 µM |
| CCC1CCCCN1CCCNC(=O)c1cn(C)c2ccc(S(=O)(=O)N(C)C3CCCCC3)cc2c1=O (stereo not given) | inconclusive: 15 µM [inhibitor, single point] |

| Structure (SMILES) | Potency |
| --- | --- |
| CN1C(=O)CCCCC1C(=O)NCC1CCN(Cc2cccc(F)c2)CC1 (stereo not given) | inconclusive: 21.1 µM [inhibitor, single point] |
| CCn1ncc(Br)c1C(=O)Nc1sc2c(c1C(N)=O)CCC2 | inactive |
| COc1ccc(-c2ncc3c(n2)OCCN(Cc2ccccc2)C3=O)cc1 | inactive |
| Nc1c2c(nc3c1CCCC3)CCCC2 (tested in a mixture with another compound) | inconclusive: 21.1 µM [inhibitor, single point] |
| CN(CCNC(=O)c1cc2c(-c3ccccc3F)nn(C)c2s1)C1CCCCC1 | active: 5.96 µM |
| CN(C)Cc1cc(C[C@@H]2C[C@H](NCc3ccccc3O)C2(C)C)no1 | active: 17.2 µM |
| O=c1[nH]c(C2CCCN(CC3CCCCC3)C2)nn1-c1ccc(Cl)cc1 (stereo not given) | inconclusive: 6.68 µM [inhibitor, partial curve] |
| CCOC(=O)N1CCc2c(sc3c2c(=O)n(CCc2ccccc2)c(=O)n3Cc2cc(C)ccc2C)C1 | inconclusive: 3.35 µM [inhibitor, full curve, poor fit] |
| COc1cc(O)c(C(CCN2CCN(c3ccccc3)CC2)c2ccc3c(c2)OCO3)c(OC)c1 (stereo not given) | active: 0.842 µM |
| COc1ccc([S+](=O)([O-])N2CCC(N3Cc4cccn4C3=O)CC2)cc1 | inactive |
| CCOc1ccc(CC(=O)N2CCN(c3cc(-c4ccc(Cl)cc4)[nH]n3)CC2)cc1 | inconclusive: 18.8 µM [inhibitor, single point] |
| O=C(NCCCN1CCc2ccccc2C1)C1Cn2cccc2C(=O)N1Cc1ccccc1 (stereo not given) | inconclusive: 9.44 µM [inhibitor, partial curve] |
| CC(=O)Nc1ccc(C)c(NS(=O)(=O)c2cccc(C(F)(F)F)c2)c1 | inconclusive: 10.6 µM [inhibitor, partial curve, poor fit] |
| CCn1cc(C(=O)N2CCN(c3ccc(OC)cc3)CC2)c(=O)c2cc(S(=O)(=O)N3CCOCC3)ccc21 | inactive |
| O=C(NCc1ccco1)C1CCN(C(=O)c2cc3sccc3n2Cc2ccc(F)cc2)CC1 | inconclusive: 21.1 µM [inhibitor, single point] |
| CCN(CC)c1cc(CCC(=O)NCCN(C)C2CCCCC2)ccn1 | inconclusive: 13.3 µM [inhibitor, partial curve] |
| C=C(C)CSc1nc2sc3c(c2c(=O)n1-c1ccc(OC)cc1)CCN(C)C3 | inconclusive: 2.99 µM [inhibitor, full curve, poor fit] |
| Cc1cc(C[n+]2ccccc2)c2nsnc2c1 | inconclusive: 13.3 µM [inhibitor, single point] |
| CCCCNc1cc(C)nc(NCc2ccccc2)n1 | active: 9.44 µM |
| COc1ccccc1NC(=O)Cn1c(C)ccc(NS(=O)(=O)c2ccccc2)c1=O | inconclusive: 9.44 µM [inhibitor, partial curve, poor fit] |
| Cc1ccc(C(=O)N2CCCC(n3cc(-c4nc(-c5ccccc5)no4)nn3)C2)cc1 (stereo not given) | inactive |
| CCC(=O)N1CCc2cc(S(=O)(=O)NCCC(=O)Nc3ccc(OC)c(Cl)c3)ccc21 | inactive |
| CCc1ccc(NC(=O)Cn2cccc2-c2nc(-c3ccc(OC)c(F)c3)no2)cc1 | inconclusive: 2.66 µM [inhibitor, full curve, poor fit] |
| CCOc1ccc(-c2cc3c(=O)n(CCNC(=O)c4ccc(OC)cc4C)ccn3n2)cc1 | inconclusive: 16.8 µM [inhibitor, single point] |

| Structure (SMILES) | Potency |
| --- | --- |
| COc1ccc(-c2cn(-c3ccccc3)c3[n+]2CCS3)cc1 | inconclusive: 3.76 µM [inhibitor, partial curve, poor fit] |
| COc1nc(Nc2ccc(C(C)C)cc2)nc(OC)n1 | inconclusive: 7.5 µM [inhibitor, single point] |
| COc1cc(OC)c(OC)cc1CN1CCc2nc(N(C)C)[nH]c(=O)c2CC1 | inactive |
| CCCc1noc(-c2ccn3c(CNC(=O)Cc4ccccc4Cl)nnc3c2)n1 | inconclusive: 21.1 µM [inhibitor, single point] |
| O[C@H]1[C@H](NCC2CCCCC2)[C@H]2CO[C@H](O2)[C@@H]1N1CCC(Cc2ccccc2)CC1 | active: 1.37 µM |
| O=C(NCCCN1CCCCC1)c1cc(Sc2ccc(Cl)cc2)nc2ccccc12 | inconclusive: 21.1 µM [inhibitor, single point] |
| CC(NC(=O)Cn1c(-c2cccs2)cc2cc(F)ccc21)c1ccccc1 (stereo not given) | active: 2.66 µM |
| Cc1cn2nc(-c3nc(C4CCCN(C(=O)Cc5ccsc5)C4)no3)cc2c(=O)[nH]1 (stereo not given) | inactive |
| O=S(=O)(c1ccc(F)cc1)N1CCN(C(=S)NCCc2ccccc2)CC1 | active: 5.96 µM |
| CN1C(=O)c2cccn2CC1CNC(=O)c1cc2ccccc2[nH]1 (stereo not given) | inconclusive: 6.68 µM [inhibitor, single point] |
| O=C(Nc1cccnc1)c1cc(-c2cccnc2)nc2ccc(Br)cc12 | active: 2.66 µM |
| Cc1ccc(NC(=O)Cn2cccc2-c2nc(-c3ccc(F)cc3)no2)c(C)c1 | inconclusive: 11.9 µM [inhibitor, partial curve, poor fit] |
| CC(C)(C)c1ccc(C(=O)Nc2ccc(C(O)[C@H]3COCC(=O)N3Cc3ccccn3)cc2)cc1 (stereo not given in full) | inconclusive: 5.31 µM [inhibitor, partial curve] |
| CCn1nc(C)cc1C(=O)N1Cc2cnn(Cc3ccc(F)cc3)c2C1 | inactive |
| Cc1ccc(NC(=O)c2oc3ccccc3c2NC(=O)c2ccccc2C)cc1 | inconclusive: 16.8 µM [inhibitor, single point] |
| CC1CCN(CCCNC(=O)c2cc(Sc3ccc(F)cc3)nc3ccccc23)CC1 | inconclusive: 15 µM [inhibitor, single point] |
| CN1CCCC(CN(CCc2ccccc2)C(=O)c2cc(C#N)cn2C)C1 (stereo not given) | inconclusive: 9.44 µM [inhibitor, partial curve] |
| O=C(NCCc1c[nH]c2ccccc12)C(=O)Nc1cc2c3c(c1)CC(=O)N3CCC2 | inconclusive: 10.6 µM [inhibitor, partial curve] |
| O=C(NCc1nc2ccccc2[nH]1)C1=C[C@@H](c2ccccc2)C[C@@H](OCc2ccc(CO)cc2)O1 | inactive |
| COCC1CN(C2CCC2)CC12CCN(C(=O)NCCc1ccccc1)CC2 (stereo not given) | inconclusive: 13.3 µM [inhibitor, single point] |
| Cc1ccccc1C(=O)NC(CC(C)C)C(=O)OCC(=O)c1c(N)n(C)c(=O)n(C)c1=O (stereo not given) | active: 2.66 µM |
| O=C(Nc1ccc(Nc2ccncc2)cc1)c1ccc(Nc2ccnc3ccc([N+](=O)[O-])cc23)cc1[N+](=O)[O-] | active: 1.33 µM |
